# About 31,000 (8.9%) of roughly 350,000 compounds were called active. The inconclusive results got no clear call from the source; some entries with a clear call stand among them for comparison. Calls follow the shape of the dose curve; as a rule, active = well fitted inhibition curve with a large enough effect; inconclusive = small, poorly fitted or top-dose-only effect; inactive = no such curve, though single readings can be large or run the other way. Potencies of inconclusive entries are doubtful fits and often do not repeat.
# Target: Histone-lysine N-methyltransferase EHMT2 (Homo sapiens) (UniProt Q96KQ7)
# Assay: qHTS Assay for Inhibitors of Histone Lysine Methyltransferase G9a; also: nearly all actives have a fitted effect of over 75% in size
# Details: G9a H3K9 monomethylation, AlphaScreen, 2 h; activity, negative = inhibition: at 59 µM (top of the series) unless noted
# How it was run: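 Enzyme 20 nM + cpd, 15 min RT; add b-H3K9 pep 500 nM / SAM 20 uM; 2 h RT; anti-H3K9me1 Ab 0.5 ug/mL + SA donor / anti-rabbit acceptor beads 20 ug/mL each, 10 min; AlphaScreen read.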
# % is scaled to controls: 0 for no effect and ±100 for the full control effect; potency is read from the fitted curve at half-maximal effect; tags tell the direction and shape of the fitted curve.
# Chain of UniProt Q96KQ7 (Q96KQ7 whole entry, looked up): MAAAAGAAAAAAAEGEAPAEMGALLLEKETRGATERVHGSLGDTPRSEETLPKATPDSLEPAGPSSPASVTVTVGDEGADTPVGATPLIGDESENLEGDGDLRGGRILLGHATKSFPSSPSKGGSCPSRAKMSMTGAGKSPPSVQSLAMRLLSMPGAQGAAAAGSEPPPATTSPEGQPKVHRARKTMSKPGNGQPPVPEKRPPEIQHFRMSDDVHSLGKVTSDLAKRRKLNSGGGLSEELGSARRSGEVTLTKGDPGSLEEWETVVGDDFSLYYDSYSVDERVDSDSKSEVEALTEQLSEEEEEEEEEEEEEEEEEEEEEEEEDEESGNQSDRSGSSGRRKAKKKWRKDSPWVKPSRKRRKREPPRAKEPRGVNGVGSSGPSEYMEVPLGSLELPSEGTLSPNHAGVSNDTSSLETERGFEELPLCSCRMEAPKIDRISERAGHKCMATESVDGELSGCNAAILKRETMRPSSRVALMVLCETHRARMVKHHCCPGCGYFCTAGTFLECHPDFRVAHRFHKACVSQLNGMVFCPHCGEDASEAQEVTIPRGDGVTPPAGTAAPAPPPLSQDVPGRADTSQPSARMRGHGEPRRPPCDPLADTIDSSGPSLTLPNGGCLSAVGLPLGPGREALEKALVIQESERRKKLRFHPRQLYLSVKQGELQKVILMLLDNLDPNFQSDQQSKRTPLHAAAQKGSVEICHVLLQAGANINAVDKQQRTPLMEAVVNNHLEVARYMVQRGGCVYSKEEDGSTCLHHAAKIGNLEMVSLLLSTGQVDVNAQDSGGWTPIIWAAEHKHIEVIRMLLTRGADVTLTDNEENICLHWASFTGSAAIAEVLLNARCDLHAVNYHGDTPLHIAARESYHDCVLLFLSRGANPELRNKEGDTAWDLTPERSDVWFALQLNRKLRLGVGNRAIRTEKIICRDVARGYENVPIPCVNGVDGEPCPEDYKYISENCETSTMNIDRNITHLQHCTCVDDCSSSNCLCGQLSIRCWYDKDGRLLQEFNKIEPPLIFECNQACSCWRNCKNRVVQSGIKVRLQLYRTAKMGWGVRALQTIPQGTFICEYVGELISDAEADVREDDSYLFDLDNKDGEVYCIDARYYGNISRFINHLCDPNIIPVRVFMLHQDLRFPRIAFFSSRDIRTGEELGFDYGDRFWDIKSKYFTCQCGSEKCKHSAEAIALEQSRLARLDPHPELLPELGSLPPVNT
Structure (SMILES),Potency,"activity, negative = inhibition"
COc1ccc(NC(C)=O)cc1NC(C)C(=O)Nc1cccc(S(=O)(=O)N2CCOCC2)c1 (configuration not stated),"inconclusive: 3.55 µM [inhibitor, single point]",
CCOC(=O)Cc1csc(NC(=O)COc2ccc(OC)cc2)n1,"inconclusive: 79.4 µM [inhibitor, single point]",
O=C(O)Cc1csc(NC(=O)CSc2nnnn2-c2ccc(O)cc2)n1,"inconclusive: 89.1 µM [inhibitor, partial curve, poor fit]",
COc1ccc(-c2cc(C(F)F)n3ncc(C(=O)N4CCN(C(=O)c5ccco5)CC4)c3n2)cc1,"inconclusive: 28.2 µM [inhibitor, single point]",
O=C(Nc1ccccc1N1CCCC1)c1ccccc1F,"inconclusive: 79.4 µM [inhibitor, partial curve]",
CCc1c(C)nc(SCC(=O)N2CCN(c3ccccc3OC)CC2)[nH]c1=O,"inconclusive: 89.1 µM [inhibitor, single point]",
C=CCNC(=O)c1ccccc1NS(=O)(=O)c1ccc(OC)c(C(=O)N2CCOCC2)c1,"inconclusive: 89.1 µM [inhibitor, single point]",
COc1ccccc1/C=N/NS(=O)(=O)c1ccccc1,"inconclusive: 44.7 µM [inhibitor, partial curve]",
NS(=O)(=O)c1ccc(NC(=S)NC(=O)/C=C/c2ccco2)cc1,"inconclusive: 10 µM [inhibitor, partial curve, poor fit]",
O=C(CN(C(=O)CCC(=O)Nc1ccccn1)c1cccc(F)c1)NCc1ccc2c(c1)OCO2,,inactive: -9.99% [at 102 µM]
CC1(C)CC(N2CCN(CCO)CC2)=CC(=S)N1,"inconclusive: 79.4 µM [inhibitor, partial curve, poor fit]",
Cc1ccc2nc(C(Cl)(Cl)Cl)nc(N/N=C/c3ccncc3)c2c1,"inconclusive: 39.8 µM [inhibitor, partial curve, poor fit]",
Clc1ccc(N/N=C/c2cccnc2)cc1,active: 3.98 µM,
COc1ccccc1C1CC(c2ccc(Cl)cc2)Nc2ncnn21 (configuration not stated),"inconclusive: 17.8 µM [inhibitor, partial curve, poor fit]",
COc1cc(/C=C2\SC(N3CCCCC3)=NC2=O)cc(OC)c1OC,"inconclusive: 0.316 µM [inhibitor, full curve]",
O=C(CSc1nc2[nH]ncc2c(=O)n1-c1ccccc1Br)NCc1ccco1,,inconclusive: -79.5% [inhibitor]
Cc1cccc(-c2nc(S(=O)(=O)c3ccc(F)cc3)c(N3CCN(c4ccccc4)CC3)o2)c1,,inactive: -5.24%
CC(=O)CC(c1ccccc1)S(=O)(=O)c1ccc([N+](=O)[O-])cc1 (configuration not stated),"inconclusive: 2.82 µM [inhibitor, full curve]",
CCc1ccc(N=C2NC(=O)CC(C(=O)Nc3ccc(OC)cc3)S2)cc1 (configuration not stated),"inconclusive: 39.8 µM [inhibitor, partial curve, poor fit]",
CC(C)(C)c1nc(N2CCN(C(=O)c3ccco3)CC2)c2nnn(Cc3ccccc3)c2n1,"inconclusive: 89.1 µM [inhibitor, single point]",
COc1ccc(OCCOCC(O)CN2CCOCC2)cc1 (configuration not stated),"inconclusive: 89.1 µM [inhibitor, single point]",
Cc1cc(C)nc(Nc2n[nH]c(-c3ccccc3N)n2)n1,active: 7.94 µM,
CCc1ccc(-c2cn3c(n2)sc2cc(C(=O)NC4CCCCCC4)ccc23)cc1,,inactive: -7.31%

Structure (SMILES),Potency,"activity, negative = inhibition"
CCN1CCN(C(=O)c2cc3c(=O)n(C)c4ccccc4c3n2C)CC1,"inconclusive: 25.1 µM [inhibitor, single point]",
Cc1ccc(-c2cc(C(=O)Nc3ccc(S(=O)(=O)Nc4ncccn4)cc3)[nH]n2)c(O)c1C,"inconclusive: 70.8 µM [inhibitor, partial curve, poor fit]",
CCCCOc1ccc(C(O)(CC)CCN2CCOCC2)cc1 (configuration not stated),"inconclusive: 39.8 µM [inhibitor, single point]",
CC(=O)N1CCc2cc(CNS(=O)(=O)c3ccc(F)cc3)ccc21,,inactive: 7.28%
Cc1cc(=O)[nH]c(CN2CCOCC2)n1,,inconclusive: -79.9% [inhibitor]
Cc1cc(OC(=O)c2ccc(C(F)(F)F)cc2)c([N+](=O)[O-])c(=O)[nH]1,"inconclusive: 79.4 µM [inhibitor, single point]",
COc1ccc(Cl)cc1Nc1sc(C(=O)c2ccccc2)c(N)c1C(=O)Nc1ccccc1,active: 15.8 µM,
N#CCc1ccc(NC(=O)/C=C/c2ccc([N+](=O)[O-])o2)cc1,active: 70.8 µM,
CC1CN(CN2C(=O)c3ccccc3C2=O)CC(C)O1 (configuration not stated),,inactive: 36.5%
Cc1ccc2cc(/C=N/NC(=O)[C@@H]3CCCN3)c(Cl)nc2c1,,inconclusive: -98.1% [inhibitor]
N#CCCSCc1ccc2oc(C(=O)O)cc2c1,"inconclusive: 7.94 µM [inhibitor, partial curve, poor fit]",
O=C(O)C1CC(=O)n2c(nc3ccccc32)S1 (configuration not stated),"inconclusive: 2 µM [inhibitor, partial curve, poor fit]",
O=[N+]([O-])c1cc2c(cc1/C=N\NS(=O)(=O)c1ccccc1)OCO2,active: 3.98 µM,
Cc1ccc(S(=O)(=O)c2nc(-c3ccccc3F)oc2N2CCCCC2)cc1,"inconclusive: 1.26 µM [inhibitor, partial curve, poor fit]",
O=C(COC(=O)c1ccc(S(=O)(=O)NCc2ccco2)cc1)NC1CCCCCC1,"inconclusive: 20 µM [inhibitor, single point]",
COc1ccccc1N(Cc1ccccc1)S(=O)(=O)c1cccc(C(=O)Nc2ncccc2C)c1,"inconclusive: 35.5 µM [inhibitor, partial curve, poor fit]",
Cc1ccc(Nc2nc(N)nc(CN3CCN(c4ccccc4F)CC3)n2)cc1,"inconclusive: 35.5 µM [inhibitor, full curve, poor fit]",
CCOc1ccc(C(=O)NCc2ccc3c(c2)OCO3)cc1OCC,"inconclusive: 14.1 µM [inhibitor, partial curve, poor fit]",
CCN(CC)c1ccc(NC(=O)C(C)C)cc1,active: 11.2 µM,
CC1(C)OC2CC(=O)OCC23C1CC(=O)C1(C)C3CC[C@@]2(C)[C@H](c3ccoc3)OC(=O)C3OC312 (some centres not stated),,inactive: 15.2%
COc1ccc(Cn2c(C)nc([N+](=O)[O-])c2SCC(=O)O)cc1[N+](=O)[O-],,inactive: -0.593% [at 102 µM]
COc1cccc(CNC(=O)c2cc3c(C)nc4ccccc4c3o2)c1,"inconclusive: 89.1 µM [inhibitor, single point]",
N#Cc1c(NC(=O)c2cnn3cccnc23)sc2c1CCCC2,active: 39.8 µM,

Structure (SMILES),Potency,"activity, negative = inhibition"
N#C/C(N=Nc1ccccc1O)=N\Nc1ccccc1O,,inconclusive: -126% [inhibitor] [at 2.33 µM]
O=C(Nc1ccc(Cl)cc1)C1CCN(c2nc3ccccc3nc2C(F)(F)F)CC1,,inactive: 11.2%
Cc1nc2c(-c3ccc(Cl)cc3)c(C)[nH]n2c(=O)c1Cc1ccccc1,,inactive: -26.2% [at 102 µM]
O=C(NCC(c1cccnc1)N1CCc2ccccc2C1)c1ccc(F)c(F)c1 (configuration not stated),"inconclusive: 22.4 µM [inhibitor, partial curve, poor fit]",
Cc1cccc(-n2c(CNC(=O)Cc3ccccc3)n[nH]c2=S)c1,active: 20 µM,
CCOc1ccccc1-c1nc(C(N)=O)c2[nH]c(=O)n(-c3cccc(C)c3)c2n1,,inactive: -8.31%
CCN(CC)c1ccc(/C=N/NC(=O)c2ccoc2C)cc1,"inconclusive: 50.1 µM [inhibitor, partial curve, poor fit]",
CCC(=O)N1c2ccccc2-c2nnc(SC)nc2OC1c1ccc(N(C)C)cc1 (configuration not stated),"inconclusive: 79.4 µM [inhibitor, single point]",
COc1cccc(OC)c1NC(=O)NC(=O)c1c(OC)c(Br)cc([N+](=O)[O-])c1OC,"inconclusive: 79.4 µM [inhibitor, partial curve, poor fit]",
CC1=C(CC(=O)c2ccc(Cl)cc2)C(=O)c2ccccc2C1=O,"inconclusive: 28.2 µM [inhibitor, full curve, poor fit]",
C=C(C)C1CC=C(CN2CC(C)OC(C)C2)CC1 (configuration not stated),active: 7.94 µM,
COCCn1c(-c2ccc(Br)cc2)nc2oc3cc(OC)ccc3c(=O)c2c1=O,"inconclusive: 70.8 µM [inhibitor, partial curve, poor fit]",
CCOC(=O)C1CCN(S(=O)(=O)c2cc(C(=O)N3CCCCC3)ccc2OC)CC1,,inactive: 45.4% [at 102 µM]
O=C(O)c1ccc(CN2C(=O)CSC2=S)cc1,"inconclusive: 50.1 µM [inhibitor, partial curve, poor fit]",
Cc1cc(N=Cc2c(O)ccc3ccccc23)no1,active: 1.12 µM,
Cn1c(=O)c2c(nc(CN3CCN(C(=O)c4ccco4)CC3)n2Cc2ccccc2)n(C)c1=O,"inconclusive: 39.8 µM [inhibitor, single point]",
Cc1ncc(CCl)c2c1OC(C)(C)OC2,"inconclusive: 28.2 µM [inhibitor, single point]",
COCCOC(=O)C1=C(N)Oc2c(oc(CO)cc2=O)C1c1c(F)cccc1Cl (configuration not stated),"inconclusive: 79.4 µM [inhibitor, single point]",
CCOC(=O)C1CCCN(C(=O)c2ccc3c(c2)N(Cc2ccccc2)C(=O)c2ccccc2S3(=O)=O)C1 (configuration not stated),,inactive: 4.47%
CC1=C(C(=O)Nc2ccc(C)cc2C)C(c2ccccc2[N+](=O)[O-])n2ncc(C(=O)Nc3ccccc3)c2N1 (configuration not stated),active: 7.08 µM,
CCN1C(=O)[C@H]2[C@@H](c3ccc(C)cc3)N3C(=O)N(c4ccc(C)cc4)C(=O)[C@@]3(C)[C@H]2C1=O,,inactive: 19.3% [at 102 µM]
